Laboratory results as given in PMC3723532.
No constants are given. Whether binding was seen depends on the method and setting.

Amino acid sequences for entries named in this document (tags omitted).
UniProt Q9FIP9: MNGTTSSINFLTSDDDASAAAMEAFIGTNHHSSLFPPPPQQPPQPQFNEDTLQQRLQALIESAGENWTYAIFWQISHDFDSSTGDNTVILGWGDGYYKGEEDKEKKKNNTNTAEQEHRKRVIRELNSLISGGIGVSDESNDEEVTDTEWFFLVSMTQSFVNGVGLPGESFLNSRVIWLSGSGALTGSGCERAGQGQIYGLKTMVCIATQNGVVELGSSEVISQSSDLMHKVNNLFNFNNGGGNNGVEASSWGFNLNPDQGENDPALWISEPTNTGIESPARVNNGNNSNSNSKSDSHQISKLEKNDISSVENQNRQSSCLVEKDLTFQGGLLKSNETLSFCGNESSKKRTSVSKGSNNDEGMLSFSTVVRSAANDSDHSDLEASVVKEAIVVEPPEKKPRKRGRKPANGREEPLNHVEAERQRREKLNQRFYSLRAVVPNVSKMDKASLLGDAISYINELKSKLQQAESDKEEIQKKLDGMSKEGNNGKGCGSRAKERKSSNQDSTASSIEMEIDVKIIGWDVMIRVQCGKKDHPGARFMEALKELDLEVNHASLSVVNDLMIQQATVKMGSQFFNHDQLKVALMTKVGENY
UniProt O49687: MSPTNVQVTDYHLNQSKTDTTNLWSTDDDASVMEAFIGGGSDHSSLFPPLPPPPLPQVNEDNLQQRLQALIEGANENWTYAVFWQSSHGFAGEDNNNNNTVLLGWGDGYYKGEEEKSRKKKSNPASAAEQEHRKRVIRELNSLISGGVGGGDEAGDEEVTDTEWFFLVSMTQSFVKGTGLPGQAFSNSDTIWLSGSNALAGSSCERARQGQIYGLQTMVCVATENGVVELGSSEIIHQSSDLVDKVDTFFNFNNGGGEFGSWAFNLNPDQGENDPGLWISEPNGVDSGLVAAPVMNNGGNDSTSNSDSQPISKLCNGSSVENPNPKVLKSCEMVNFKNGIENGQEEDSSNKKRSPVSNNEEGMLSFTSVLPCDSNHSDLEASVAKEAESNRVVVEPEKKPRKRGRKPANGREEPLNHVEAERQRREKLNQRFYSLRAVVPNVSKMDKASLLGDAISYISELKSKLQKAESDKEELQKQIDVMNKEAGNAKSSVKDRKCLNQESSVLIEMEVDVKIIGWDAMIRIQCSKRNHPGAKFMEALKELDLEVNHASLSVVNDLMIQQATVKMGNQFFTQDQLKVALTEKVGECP
UniProt Q39204: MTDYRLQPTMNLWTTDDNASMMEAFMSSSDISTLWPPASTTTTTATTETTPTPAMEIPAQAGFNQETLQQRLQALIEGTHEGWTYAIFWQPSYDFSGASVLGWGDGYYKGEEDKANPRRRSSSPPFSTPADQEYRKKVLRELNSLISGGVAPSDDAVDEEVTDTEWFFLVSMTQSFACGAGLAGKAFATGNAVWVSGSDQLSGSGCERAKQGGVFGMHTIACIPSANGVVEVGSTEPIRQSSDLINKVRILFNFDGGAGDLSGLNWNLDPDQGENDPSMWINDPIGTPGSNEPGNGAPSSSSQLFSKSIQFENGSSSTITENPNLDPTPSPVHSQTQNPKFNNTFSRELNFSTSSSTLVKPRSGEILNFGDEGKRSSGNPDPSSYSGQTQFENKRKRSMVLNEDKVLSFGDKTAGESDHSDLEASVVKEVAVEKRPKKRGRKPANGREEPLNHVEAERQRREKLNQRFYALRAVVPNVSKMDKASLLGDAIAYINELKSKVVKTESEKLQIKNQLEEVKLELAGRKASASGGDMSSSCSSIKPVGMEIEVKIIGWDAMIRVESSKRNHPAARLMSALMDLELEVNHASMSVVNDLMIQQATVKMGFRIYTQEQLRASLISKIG
UniProt O23487: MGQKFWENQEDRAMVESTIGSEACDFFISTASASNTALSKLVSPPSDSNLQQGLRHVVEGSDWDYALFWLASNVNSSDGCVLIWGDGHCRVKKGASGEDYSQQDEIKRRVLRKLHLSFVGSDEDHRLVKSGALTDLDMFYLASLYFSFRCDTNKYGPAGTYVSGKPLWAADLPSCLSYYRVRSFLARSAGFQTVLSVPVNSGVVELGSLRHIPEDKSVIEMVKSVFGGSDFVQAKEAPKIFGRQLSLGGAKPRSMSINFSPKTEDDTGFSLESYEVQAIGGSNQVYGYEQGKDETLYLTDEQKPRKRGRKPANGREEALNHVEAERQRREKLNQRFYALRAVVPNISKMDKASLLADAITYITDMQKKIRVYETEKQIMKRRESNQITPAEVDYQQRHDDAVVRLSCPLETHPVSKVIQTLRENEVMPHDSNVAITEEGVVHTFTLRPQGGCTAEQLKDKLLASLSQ
UniProt Q9LNJ5: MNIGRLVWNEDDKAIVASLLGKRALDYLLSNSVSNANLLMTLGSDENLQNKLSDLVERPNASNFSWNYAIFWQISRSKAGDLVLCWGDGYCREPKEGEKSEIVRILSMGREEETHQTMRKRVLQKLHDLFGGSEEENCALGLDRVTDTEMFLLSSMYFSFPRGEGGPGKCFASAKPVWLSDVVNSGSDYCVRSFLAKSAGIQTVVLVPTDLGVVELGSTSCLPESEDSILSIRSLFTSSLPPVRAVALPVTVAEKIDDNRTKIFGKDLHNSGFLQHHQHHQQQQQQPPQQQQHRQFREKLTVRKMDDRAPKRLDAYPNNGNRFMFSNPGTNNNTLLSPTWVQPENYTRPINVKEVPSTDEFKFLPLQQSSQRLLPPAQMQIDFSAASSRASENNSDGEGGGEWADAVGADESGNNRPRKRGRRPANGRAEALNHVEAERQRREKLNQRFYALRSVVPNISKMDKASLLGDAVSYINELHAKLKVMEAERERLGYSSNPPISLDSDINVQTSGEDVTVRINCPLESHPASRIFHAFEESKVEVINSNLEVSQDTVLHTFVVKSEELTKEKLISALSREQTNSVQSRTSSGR
UniProt Q9ZPY8: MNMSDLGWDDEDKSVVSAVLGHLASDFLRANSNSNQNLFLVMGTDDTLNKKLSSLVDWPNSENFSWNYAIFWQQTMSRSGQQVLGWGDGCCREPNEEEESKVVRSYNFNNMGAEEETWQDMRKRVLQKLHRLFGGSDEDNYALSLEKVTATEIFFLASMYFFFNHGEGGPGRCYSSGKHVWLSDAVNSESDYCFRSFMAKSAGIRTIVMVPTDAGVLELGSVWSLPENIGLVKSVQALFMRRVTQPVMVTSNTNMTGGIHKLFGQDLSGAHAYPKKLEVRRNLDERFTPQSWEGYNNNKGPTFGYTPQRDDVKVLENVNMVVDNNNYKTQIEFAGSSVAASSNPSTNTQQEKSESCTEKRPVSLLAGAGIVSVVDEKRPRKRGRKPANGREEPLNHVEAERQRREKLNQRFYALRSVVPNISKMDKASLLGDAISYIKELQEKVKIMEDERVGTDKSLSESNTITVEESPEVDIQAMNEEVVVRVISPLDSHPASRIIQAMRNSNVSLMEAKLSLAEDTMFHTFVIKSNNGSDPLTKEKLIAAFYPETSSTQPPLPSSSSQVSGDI

How the values were obtained:
Assay in all cases: two-hybrid; LexA BD fusions (pLexA) and B42 AD fusions (pB42AD) in yeast EGY48; blue colour on 2% Gal/1% raffinose/SD/-Ura/-His/-Trp/-Leu/X-β-Gal medium; images after 3 days at 30°C
[1] = target: T1, TTG1 (Arabidopsis thaliana) (UniProt Q9XGN1)
T1 sequence: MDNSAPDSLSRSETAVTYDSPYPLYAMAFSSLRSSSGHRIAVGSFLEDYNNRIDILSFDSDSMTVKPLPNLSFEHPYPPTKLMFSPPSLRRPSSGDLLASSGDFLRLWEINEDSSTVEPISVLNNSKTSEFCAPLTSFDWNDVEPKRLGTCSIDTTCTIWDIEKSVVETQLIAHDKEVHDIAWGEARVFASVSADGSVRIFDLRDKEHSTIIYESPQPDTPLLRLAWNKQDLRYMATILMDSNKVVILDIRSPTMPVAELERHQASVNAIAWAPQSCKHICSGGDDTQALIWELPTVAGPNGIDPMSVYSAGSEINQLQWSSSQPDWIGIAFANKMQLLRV

[2] = target: T2, EGL3 (Arabidopsis thaliana) (UniProt Q9CAD0)
T2 sequence: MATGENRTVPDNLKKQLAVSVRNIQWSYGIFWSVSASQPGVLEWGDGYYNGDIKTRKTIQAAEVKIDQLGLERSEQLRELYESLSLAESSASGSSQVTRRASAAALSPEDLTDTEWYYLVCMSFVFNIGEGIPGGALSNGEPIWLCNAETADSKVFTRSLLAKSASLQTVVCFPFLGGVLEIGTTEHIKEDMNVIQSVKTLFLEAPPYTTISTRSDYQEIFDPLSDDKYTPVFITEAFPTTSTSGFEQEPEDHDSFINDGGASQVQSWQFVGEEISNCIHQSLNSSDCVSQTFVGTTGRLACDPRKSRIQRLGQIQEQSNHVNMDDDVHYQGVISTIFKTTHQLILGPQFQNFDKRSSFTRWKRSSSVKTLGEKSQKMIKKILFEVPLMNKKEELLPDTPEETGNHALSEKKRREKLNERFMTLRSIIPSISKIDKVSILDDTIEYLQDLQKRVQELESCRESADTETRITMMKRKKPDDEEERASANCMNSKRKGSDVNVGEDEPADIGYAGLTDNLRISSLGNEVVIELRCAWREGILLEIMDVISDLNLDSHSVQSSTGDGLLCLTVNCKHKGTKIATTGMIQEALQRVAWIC

[3] = target: MYC3 (Arabidopsis thaliana) (UniProt Q9FIP9)
[4] = target: T3, MYB75 (Arabidopsis thaliana) (UniProt Q9FE25)
T3 sequence: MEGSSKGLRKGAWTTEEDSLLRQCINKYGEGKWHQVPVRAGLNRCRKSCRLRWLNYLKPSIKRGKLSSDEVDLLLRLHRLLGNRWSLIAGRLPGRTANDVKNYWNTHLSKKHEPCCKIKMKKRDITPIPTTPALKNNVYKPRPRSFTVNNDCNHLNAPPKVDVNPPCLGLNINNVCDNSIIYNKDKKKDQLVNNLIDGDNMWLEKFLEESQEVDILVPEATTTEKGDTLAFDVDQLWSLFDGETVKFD

[5] = target: T4, TT8 (Arabidopsis thaliana) (UniProt Q9FT81)
T4 sequence: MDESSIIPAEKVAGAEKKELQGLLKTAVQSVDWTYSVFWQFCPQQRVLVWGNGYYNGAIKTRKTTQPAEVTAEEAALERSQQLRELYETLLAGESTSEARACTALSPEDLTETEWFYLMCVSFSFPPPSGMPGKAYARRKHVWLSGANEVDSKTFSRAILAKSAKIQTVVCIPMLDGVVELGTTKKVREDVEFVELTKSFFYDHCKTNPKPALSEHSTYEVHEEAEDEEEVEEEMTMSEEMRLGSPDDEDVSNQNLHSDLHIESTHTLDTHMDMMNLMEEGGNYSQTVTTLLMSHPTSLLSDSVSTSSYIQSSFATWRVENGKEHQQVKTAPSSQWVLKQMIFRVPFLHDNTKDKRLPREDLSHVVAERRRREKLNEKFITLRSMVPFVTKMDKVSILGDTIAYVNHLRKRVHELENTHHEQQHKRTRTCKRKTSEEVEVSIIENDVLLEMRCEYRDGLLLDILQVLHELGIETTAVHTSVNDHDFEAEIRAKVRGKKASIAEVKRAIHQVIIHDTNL

[6] = target: MYC4 (Arabidopsis thaliana) (UniProt O49687)
[7] = target: MYC2 (Arabidopsis thaliana) (UniProt Q39204)

binding [1] | binding [2] | binding [3] | binding [4] | binding [5] | binding [6] | binding [7] | Substance
no binding | no binding | no binding | no binding | no binding | no binding | no binding | bHLH3 (from UniProt O23487 1-467)
no binding | no binding | no binding | no binding | no binding | no binding | no binding | bHLH13 (from UniProt Q9LNJ5 1-590)
no binding | no binding | no binding | no binding | no binding | no binding | no binding | bHLH17 (from UniProt Q9ZPY8 1-566)
